Measured values reported in PMC2191977 (The Journal of Experimental Medicine, 1995).
Numbering of substitutions follows the chain as printed.

Experiments:
Assay in all cases: flow cytometry on cells
B7 P172A = target: T1, B7 P172A (mouse, UniProt Q00609 38-306, P172A)
T1 sequence (looked up): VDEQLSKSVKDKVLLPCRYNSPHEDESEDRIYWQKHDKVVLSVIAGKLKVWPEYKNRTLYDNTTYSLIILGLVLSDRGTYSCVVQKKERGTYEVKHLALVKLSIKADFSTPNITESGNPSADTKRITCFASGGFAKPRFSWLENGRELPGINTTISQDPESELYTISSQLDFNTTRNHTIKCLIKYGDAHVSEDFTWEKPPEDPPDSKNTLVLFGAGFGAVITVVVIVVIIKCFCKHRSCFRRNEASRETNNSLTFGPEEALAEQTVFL

B7 E180D = target: T2, B7 E180D (mouse, UniProt Q00609 38-306, E180D)
T2 sequence (looked up): T1 sequence (looked up) with A135P, E143D

B7 S177A = target: T3, B7 S177A (mouse, UniProt Q00609 38-306, S177A)
T3 sequence (looked up): T1 sequence (looked up) with A135P, S140A

B7 E199A = target: T4, B7 E199A (mouse, UniProt Q00609 38-306, E199A)
T4 sequence (looked up): T1 sequence (looked up) with A135P, E162A

B7 C165G = target: T5, B7 C165G (mouse, UniProt Q00609 38-306, C165G)
T5 sequence (looked up): T1 sequence (looked up) with C128G, A135P

murine B7 (wild type) = target: T6, murine B7 (wild type) (mouse, UniProt Q00609 38-306)
T6 sequence (looked up): T1 sequence (looked up) with A135P

B1: CTLA4Ig (Fc fusion)
chain: not shown
- % wild-type B7 binding (normalised to anti-B7 mAb 10.16A.1) (B7 P172A): 3%
- MF (mean fluorescence, control subtracted) (B7 P172A): 8 MF
- % wild-type B7 binding (normalised to anti-B7 mAb 10.16A.1) (B7 E180D): 83%
- MF (mean fluorescence, control subtracted) (B7 E180D): 622 MF
- % wild-type B7 binding (normalised to anti-B7 mAb 10.16A.1) (B7 S177A): 56%
- MF (mean fluorescence, control subtracted) (B7 S177A): 476 MF
- % wild-type B7 binding (normalised to anti-B7 mAb 10.16A.1) (B7 E199A): 63%
- MF (mean fluorescence, control subtracted) (B7 E199A): 108 MF
- % wild-type B7 binding (normalised to anti-B7 mAb 10.16A.1) (B7 C165G): 10%
- MF (mean fluorescence, control subtracted) (B7 C165G): 30 MF
- % wild-type B7 binding (normalised to anti-B7 mAb 10.16A.1) (murine B7 (wild type)): 100%
